Source: publication PMC4336329 (PLoS ONE, 2015)
In all, about 310,000 compounds went through this assay and about 14,000 (4.5%) showed an effect of 50% or more. Effects have a minus sign here. This is one part of the list.

molecular target: human ether-à-go-go-related gene (hERG) potassium channel (human, UniProt Q12809); assay: primary screen, population patch clamp on CHO cells stably expressing hERG
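Note: peak tail current of the secondary pulse compared with the same well before compound.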

Chain of human ether-à-go-go-related gene (hERG) potassium channel (Q12809 whole entry, looked up): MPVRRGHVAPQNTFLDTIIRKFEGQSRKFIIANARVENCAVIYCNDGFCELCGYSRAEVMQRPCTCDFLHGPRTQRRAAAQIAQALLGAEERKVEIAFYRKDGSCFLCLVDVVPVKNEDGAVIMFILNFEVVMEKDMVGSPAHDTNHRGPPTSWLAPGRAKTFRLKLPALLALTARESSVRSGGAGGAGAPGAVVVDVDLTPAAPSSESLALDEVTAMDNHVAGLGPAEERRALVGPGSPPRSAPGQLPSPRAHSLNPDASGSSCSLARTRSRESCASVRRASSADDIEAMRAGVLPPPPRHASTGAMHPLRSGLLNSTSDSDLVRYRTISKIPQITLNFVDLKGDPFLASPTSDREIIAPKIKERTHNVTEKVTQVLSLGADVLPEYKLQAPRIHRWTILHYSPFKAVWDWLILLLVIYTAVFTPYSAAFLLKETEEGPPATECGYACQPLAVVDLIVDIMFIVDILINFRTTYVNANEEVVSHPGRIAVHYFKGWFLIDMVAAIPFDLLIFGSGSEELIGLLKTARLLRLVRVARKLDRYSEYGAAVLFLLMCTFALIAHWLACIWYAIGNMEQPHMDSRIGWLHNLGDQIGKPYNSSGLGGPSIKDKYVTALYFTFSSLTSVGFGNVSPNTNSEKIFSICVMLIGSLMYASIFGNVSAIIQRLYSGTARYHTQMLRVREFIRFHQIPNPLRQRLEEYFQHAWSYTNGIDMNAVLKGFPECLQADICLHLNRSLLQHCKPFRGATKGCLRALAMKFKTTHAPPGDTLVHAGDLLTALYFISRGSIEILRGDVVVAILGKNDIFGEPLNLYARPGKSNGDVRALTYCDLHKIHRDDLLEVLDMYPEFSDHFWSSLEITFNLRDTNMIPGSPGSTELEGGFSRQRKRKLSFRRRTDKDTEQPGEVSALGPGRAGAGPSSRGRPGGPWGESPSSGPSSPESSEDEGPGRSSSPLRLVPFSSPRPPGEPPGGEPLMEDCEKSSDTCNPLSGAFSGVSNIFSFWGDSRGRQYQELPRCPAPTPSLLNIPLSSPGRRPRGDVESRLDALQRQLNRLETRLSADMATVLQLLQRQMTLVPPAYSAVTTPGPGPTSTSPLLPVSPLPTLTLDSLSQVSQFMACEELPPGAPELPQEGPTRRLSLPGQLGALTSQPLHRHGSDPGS

| Structure (SMILES) | hERG current change (%, negative = inhibition) at 10uM [%] |
| --- | --- |
| CC(C)(C)NC(=O)CSC(=Nc1ccc(F)cc1)NC#N | -72.3 |
| COc1ccc(/C(N)=N/OC(=O)CSc2ccc(C)cc2)cc1OC | 1.89 |
| CC(C)(C)OC(=O)CNC(=O)c1[nH]cnc1C(=O)NC1CCN(C(=O)OC(C)(C)C)CC1 | -2.67 |
| COc1ccc(-c2c(C)nc(N)nc2-c2ccc(OC)cc2O)cc1 | 11 |
| Fc1ccc(C2N(c3ccccc3)C(=S)N3CCCN23)cc1 (stereo not drawn) | 4.2 |
| CCC(=O)c1ccc(OCC(=O)Nc2ccccc2N2CCOCC2)cc1 | -7.08 |
| CCc1nnc(NCn2nc(C)cc2C)s1 | 4.04 |
| CCc1ccccc1NC(=O)CCc1nc(-c2ccc(C)cc2)no1 | 4.43 |
| CCn1c2ccccc2c2nnc(SCC(=O)N3CC(C)OC(C)C3)nc21 (stereo not drawn) | -9.08 |
| CSCC[C@H](NC(=O)OC(C)(C)C)C(=O)N/N=C/c1cc2ccc(C)cc2nc1Cl | -7.13 |
| O=C(Nn1cnnc1)c1cccc(S(=O)(=O)N2CCOCC2)c1 | 22.5 |
| COc1ccc(NC(=O)C/C(C)=N/NC(=O)c2ccco2)c([N+](=O)[O-])c1 | -33.9 |
| COc1cc2c(cc1NC(=O)COC(=O)[C@@H](NS(=O)(=O)c1cccc(Cl)c1)C(C)C)oc1ccccc12 | 18.8 |
| CCOc1ccc(CN2CCNC(=O)C2CC(=O)NCCN2CCOC2=O)cc1 (stereo not drawn) | 21.1 |
| O=C(COc1ccccc1[N+](=O)[O-])NCc1cccnc1 | -18 |
| O=C(N/N=C/c1ccco1)C12CC3CC(CC(C3)C1)C2 | 10.3 |
| Cc1cc(C(=O)OCC(=O)NC2CCCCC2)c(C)o1 | 9.12 |
| CCOc1ccccc1C1C(C#N)=C(N)Oc2cc(C)n(C)c(=O)c21 (stereo not drawn) | -2.81 |
| COc1ccc(-n2c(C(C)(C)C)csc2=Nc2c(C)n(C)n(-c3ccccc3)c2=O)cc1 | 3.4 |
| Cc1ccc(CNC(=O)C2CC(c3cccc(F)c3)=NO2)cc1 (stereo not drawn) | -0.806 |
| O=C(Nc1ccccc1)c1nnsc1S(=O)(=O)c1ccc(Cl)cc1 | -1.13 |

| Structure (SMILES) | hERG current change (%, negative = inhibition) at 10uM [%] |
| --- | --- |
| COc1ccc(C2CC(c3cccc(C)c3)n3nc(N)nc3N2)cc1 (stereo not drawn) | -26.1 |
| CC(C)N1CC23C=CC(O2)C(C(=O)OCc2ccccc2)C3C1=O (stereo not drawn) | 3.29 |
| O=[N+]([O-])c1sccc1CS(=O)(=O)c1ccccc1 | 0.965 |
| C[C@@H](C(=O)Nc1ccc2ccccc2c1)[C@H]1C[C@]1(C)[C@H](NC(=O)c1cnccn1)c1ccccc1 | -4.43 |
| COc1ccc(S(=O)(=O)N(C)CC(=O)Nc2ccc3c(c2)OCO3)cc1 | -6.06 |
| O=C1[C@H]2[C@H](C=CC[C@H]2C(=O)N2CCOCC2)CCN1Cc1ccccc1 | 3.9 |
| C=CCNC(=S)NNC(=O)c1cccc2ccccc12 | 8.08 |
| CCCCN(C)CCCNC(=O)c1cc(Nc2ccc(OC)c(OC)c2)nc2ccccc12 | 2.09 |
| CN(C)S(=O)(=O)c1ccc(C(=O)OCC(=O)Nc2cccnc2Cl)cc1 | 1.64 |
| CN(C)S(=O)(=O)c1cccc(NC(=O)COC(=O)c2cc(-c3cccc(Br)c3)nc3ccccc23)c1 | 0.00528 |
| CN(C)c1ccc(C(CC(=O)O)C(=O)O)cc1 (stereo not drawn) | 14.4 |
| Cc1c(OCC(=O)NCCCN2CCOCC2)ccc2c(-c3ccccc3)cc(=O)oc12 | -26.9 |
| O=C(O)CCc1[nH]c2ccccc2c1Sc1ccccc1 | 16.5 |
| CCCCNC(=O)C1Cc2cc(S(=O)(=O)N3CCCC3)ccc2N1C(C)=O (stereo not drawn) | 11.9 |
| CCCc1cc(=O)c2ccc(OC/C(C)=N/O)cc2o1 | -17.5 |
| Cc1nn(C2CCS(=O)(=O)C2)c(Cl)c1/C=C/C(=O)OCC(=O)c1c[nH]c2ccccc12 (stereo not drawn) | -4.84 |
| CCOc1ccccc1N=NC1C(=O)N(C(N)=S)N=C1C (stereo not drawn) | 7.06 |
| Cc1cccc(N=Nc2c(C)nn(-c3ccccc3)c2N)c1C | -7.14 |
| Cc1cccc(-c2noc(CN(C)C(=O)c3ccc4c(c3)OCO4)n2)c1 | -24.1 |
| CC(C)CCN1CCN(Cc2cccn2-c2nccs2)CC1CCO (stereo not drawn) | -52.1 |
| Cc1cccc(NC(=O)COc2ccc(/C=N\n3cnnc3)cc2)c1 | -37.2 |

| Structure (SMILES) | hERG current change (%, negative = inhibition) at 10uM [%] |
| --- | --- |
| Cc1cccc(NC(=O)CN(C)S(=O)(=O)c2cccc3nsnc23)c1C | -8.69 |
| CS(=O)(=O)N1CCCC(c2nc(-c3ccc(S(=O)(=O)NCc4ccccc4)cc3)no2)C1 (stereo not drawn) | -1.19 |
| COc1ccc(NC(=O)[C@@H]2CC=C[C@@H]3CCN(Cc4ccccc4)C(=O)[C@@H]32)cc1 | -8.12 |
| CCOC(=O)c1sc(NC(=S)NC(=O)c2ccccc2Cl)c(C(=O)OCC)c1C | 5.04 |
| COc1cc(CNC(C)(C)CO)ccc1OCC(=O)NC(C)(C)C | 0.607 |
| COc1cc(CN2CCN(c3cccc(C)c3C)CC2)cc([N+](=O)[O-])c1O | 23.5 |
| Clc1cccc(-c2nc(-c3ccc(-c4nn[nH]n4)cc3)no2)c1 | 10.5 |
| CCn1c(SCC(=O)N2c3ccccc3CC2C)nnc1-c1ccco1 (stereo not drawn) | -17.6 |
| COc1cc(/C=N/NC(=O)c2cc(C3CC3)[nH]n2)ccc1O | -12.7 |
| CCOc1ccccc1C1CC(=O)Nc2cc(OC)c(OC)cc21 (stereo not drawn) | 13.2 |
| CC12CC(NC(=O)N1c1cccc(C(=O)Nc3ncn[nH]3)c1)c1ccccc1O2 (stereo not drawn) | -21.1 |
| Cc1ccc(C(=O)N2C(CC(=O)Nc3ccc(Cl)cc3)C(=O)NC3CCCCC32)cc1 (stereo not drawn) | -12.3 |
| CCC(=O)N1CCc2cc(Br)cc(S(=O)(=O)NCCCN(CC)Cc3ccccc3)c21 | -27.9 |
| Cc1cccc(-n2c(C)nc3ccccc3c2=O)c1C | 1.23 |
| COc1ccc(C(=O)Nc2ccc(C(=O)NCCc3ccc(OC)c(OC)c3)cc2)cc1 | 30.5 |
| CCn1c(COc2ccc(Cl)cc2)nnc1SCc1nc2ccccc2[nH]1 | -17.7 |
| O=S(=O)(c1ccccc1)c1nc(-c2cccs2)oc1NCC1CCCO1 (stereo not drawn) | -21.1 |
| CN(C)c1cccc(C(=O)N2CCCC(CCC(=O)NCc3ccccc3F)C2)c1 (stereo not drawn) | -2.15 |
| COC(=O)COc1ccc(Cl)cc1C1Nc2ccccc2C(=O)N1c1ccc(OC)cc1 (stereo not drawn) | -16.9 |
| COc1ccc(NC(=O)CCC(=O)N/N=C/c2cccnc2)cc1 | 16.7 |
| CCOc1ccc(NC(=O)C2CCN(S(=O)(=O)c3ccc4c(c3)CC(C)N4C(C)=O)CC2)cc1 (stereo not drawn) | 19.5 |

| Structure (SMILES) | hERG current change (%, negative = inhibition) at 10uM [%] |
| --- | --- |
| C/C(=N\NC(=O)c1nnn(-c2nonc2N)c1-c1cccs1)c1cccc(O)c1 | -11.6 |
| CC1=C(C(=O)NC2CC(C)(C)Cc3c2cnn3-c2ccc(C)cc2)OCCO1 (stereo not drawn) | 3.64 |
| O=C(/C=C/c1ccc(O)c(O)c1)NC(=O)c1ccccc1O | 6.74 |
| NS(=O)(=O)c1ccc(N=Cc2ccc(Br)s2)cc1 | 8.93 |
| Cc1ccc(-n2nc3ccc(NC(=S)NC(=O)/C=C/c4ccco4)cc3n2)cc1 | 7.85 |
| CC(=O)N1c2ccc(S(=O)(=O)NCCc3ccc(Cl)cc3)cc2CC1C (stereo not drawn) | -18.6 |
| C[C@@H]1CCC2[C@](C)(CO)[C@@H](O)CC[C@]2(C)[C@@]12CC[C@@](CO)(CC(=O)[O-])O2.[Na+] (stereo partly drawn) | 20.3 |
| CCC(C(=O)NC(C)(C)C)N(C(=O)c1ccc(Cl)nc1)C1CCCC1 (stereo not drawn) | 9.74 |
| Cc1ccc(Oc2cc(N3CCOCC3)nc(-c3ccccc3)n2)cc1 | 5.63 |
| CCCCOc1ccc2ccccc2c1C=O | 8.47 |
| CCCCC(c1nnnn1CS(=O)(=O)c1ccc(C)cc1)N1CCN(C)CC1.Cl (stereo not drawn) | 3.52 |
| Cc1cccn2c(=O)c(/C=C(\C#N)S(=O)(=O)c3ccccc3)c(N3CCC(C(N)=O)CC3)nc12 | -75.4 |
| COc1cccc(/C=C/C(=O)NCC2CCCCC2)c1 | 2.66 |
| COC(=O)CCCC1=CC2=CC(=O)C(C)(OC(=O)c3cccs3)C(=O)C2=CN1C1CC1 (stereo not drawn) | 10.5 |
| O=C(NC1CCCCC1)C(c1ccco1)N(C(=O)c1csnn1)c1ccccc1 (stereo not drawn) | 0.857 |
| CN(C)S(=O)(=O)N1CCC(CO)(CCc2ccccc2)CC1 | -8.86 |
| COc1cc2c(cc1OC)C(C)N(C(=O)c1cc(Cl)nc(Cl)c1)CC2 (stereo not drawn) | -4.17 |
| O=C(Nc1ccc(F)cc1)c1ccc(Br)c(S(=O)(=O)N2CCOCC2)c1 | -58.8 |
| CC(=O)Nc1cccc(NC(=O)CCn2c(=O)sc3ccccc32)c1 | 29.2 |
| Cc1ccc(OCC(=O)NNC(=O)CCC(=O)Nc2ccc(C)cc2C)cc1 | 19.7 |
| CC(=O)c1cccc(NC(=O)CCc2nnc3ccc(NCc4ccc5c(c4)OCO5)nn23)c1 | 26.7 |
